Experimental findings from the BET-seq Pho4 binding data (Le et al. 2018) are described below.

Some of the results follow. These are noisy estimates, calculated here from bound and input reads.

The test deals with T1, Pho4 (S. cerevisiae) (UniProt P07270).
T1 sequence: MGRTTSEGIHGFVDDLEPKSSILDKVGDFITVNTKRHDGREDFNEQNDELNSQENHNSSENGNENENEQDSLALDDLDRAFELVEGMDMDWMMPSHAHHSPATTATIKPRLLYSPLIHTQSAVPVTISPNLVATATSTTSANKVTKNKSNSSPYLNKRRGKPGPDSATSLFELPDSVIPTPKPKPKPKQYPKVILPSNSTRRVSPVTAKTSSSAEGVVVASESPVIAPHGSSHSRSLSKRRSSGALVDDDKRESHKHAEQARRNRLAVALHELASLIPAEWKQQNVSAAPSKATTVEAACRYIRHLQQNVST
In words: relative binding free energy (BET-seq); higher = weaker binding. The following applies: reference: library average.
As for TATTGCACGTGGGTGC, the “relative binding free energy” value is -0.13 kcal/mol.
Turning to AGAGGCACGTGTTACG, the “relative binding free energy” value was -0.12 kcal/mol.
Turning to TGATGCACGTGTGGTT, the “relative binding free energy” value amounted to 0.04 kcal/mol.
As for TTATGCACGTGGTTGT, the “relative binding free energy” value is -0.01 kcal/mol.
Regarding ATTAACACGTGGTGTC, the “relative binding free energy” value is -0.12 kcal/mol.
In the case of TGAGACACGTGTAGTG, the “relative binding free energy” value was 0.07 kcal/mol.
Under AACGTCACGTGTGGTA stands 0.14 kcal/mol; under TGGAACACGTGGTTCA, 0.1 kcal/mol; under ACTTGCACGTGATTGG, 0.16 kcal/mol.
On to TTGTACACGTGGGGGC, for which the “relative binding free energy” value is -0.13 kcal/mol.
As for ATGAGCACGTGTAGCG, the “relative binding free energy” value is -0.03 kcal/mol.
For the sequence TGGCCCACGTGGGGGC, the “relative binding free energy” value was -0.33 kcal/mol.
Under GTTGGCACGTGACTAG stands 0.09 kcal/mol.
GATATCACGTGAGATG: the “relative binding free energy” value stood at 0.4 kcal/mol.
Next, GACTGCACGTGGTAGT: 0.02 kcal/mol.
Regarding GTTGGCACGTGTTAGG, the “relative binding free energy” value is -0.02 kcal/mol.
As for TTATTCACGTGCAGTT, the “relative binding free energy” value is 0.28 kcal/mol.
As for TGTTTCACGTGTATTT, the “relative binding free energy” value was found to be 0.25 kcal/mol.
ACGTGCACGTGAGGCT: the “relative binding free energy” value is 0.16 kcal/mol.
Turning to TTCTTCACGTGTTGTG, the “relative binding free energy” value is 0.23 kcal/mol.
Next, TGTCACACGTGTTCGG: 0.14 kcal/mol; GGGGTCACGTGGCTAA: 0.04 kcal/mol.
Under GTTGTCACGTGCATAT stands 0.12 kcal/mol; under ACTGGCACGTGTGCTG, -0.13 kcal/mol; under TAGTGCACGTGAGAGG, 0.13 kcal/mol.
ATAGACACGTGTGATA: the “relative binding free energy” value was determined as 0.07 kcal/mol.
Next, TTAATCACGTGATTAA: 0.18 kcal/mol; AGGGCCACGTGGCTGT: -0.08 kcal/mol.
Next, GGGCACACGTGGGTAG: -0.04 kcal/mol; AAAGGCACGTGGGAAT: -0.07 kcal/mol.
As to TAGGGCACGTGGGCGC, the “relative binding free energy” value was -0.26 kcal/mol.
Consider TGTACCACGTGGGGCA, for which the “relative binding free energy” value was -0.23 kcal/mol.
As for GTGATCACGTGATAAT, the “relative binding free energy” value was 0.38 kcal/mol.
Turning to AAATGCACGTGCTGGG, the “relative binding free energy” value was -0.04 kcal/mol.
As to TTACCCACGTGGTTGG, the “relative binding free energy” value is -0.13 kcal/mol.
Under GTATACACGTGGTGGC stands 0.06 kcal/mol; under CGGTTCACGTGCGTAG, 0.17 kcal/mol; under ATTAGCACGTGGTGGA, -0.14 kcal/mol.
On to TGAGTCACGTGCGGGG, for which the “relative binding free energy” value stood at 0.15 kcal/mol.
Consider CTTTTCACGTGGGGAA, for which the “relative binding free energy” value came to 0.04 kcal/mol.
In the case of GAGAGCACGTGTGGTT, the “relative binding free energy” value came out at 0 kcal/mol.
On to GTTATCACGTGTAGGC, for which the “relative binding free energy” value stood at 0.14 kcal/mol.
As to CTGCTCACGTGTAGGG, the “relative binding free energy” value came to 0.2 kcal/mol.
For GTGTTCACGTGTAAAT, the “relative binding free energy” value was 0.32 kcal/mol.
Turning to TGACGCACGTGCGAGT, the “relative binding free energy” value was -0.06 kcal/mol.
With GGTTCCACGTGGGCGG, the “relative binding free energy” value was -0.06 kcal/mol.
With TGATGCACGTGAGGGT, the “relative binding free energy” value is 0.2 kcal/mol.
Under GCGGTCACGTGGGTTC stands 0.06 kcal/mol; under GTGTGCACGTGGAGTG, 0.05 kcal/mol; under CAGTACACGTGGAGGG, 0.1 kcal/mol.
Under GGTCACACGTGAGGTG stands 0.3 kcal/mol.
On to ATAGACACGTGAGTTG, for which the “relative binding free energy” value was 0.25 kcal/mol.
Next, CTGGTCACGTGATGCT: 0.23 kcal/mol.
In the case of TCAGGCACGTGGGTCT, the “relative binding free energy” value was -0.29 kcal/mol.
Next, TTGGTCACGTGGCTAT: 0.02 kcal/mol; GCTTACACGTGATGTT: 0.22 kcal/mol.
As to ATCGGCACGTGTCGGG, the “relative binding free energy” value is -0.09 kcal/mol.
As to TTGGTCACGTGGAGCG, the “relative binding free energy” value was 0.05 kcal/mol.
For the sequence GCTGTCACGTGTATGT, the “relative binding free energy” value came out at 0.19 kcal/mol.
Next, TGTCGCACGTGGGTGA: -0.21 kcal/mol; TTTTACACGTGGGGAA: 0.05 kcal/mol.
Consider GGGAACACGTGTATGG, for which the “relative binding free energy” value is 0.16 kcal/mol.
In the case of GGCGTCACGTGTGGGC, the “relative binding free energy” value was determined as 0.11 kcal/mol.
Consider GTGATCACGTGTTGTG, for which the “relative binding free energy” value was 0.19 kcal/mol.
Consider GTGTGCACGTGTCCGT, for which the “relative binding free energy” value was determined as 0.02 kcal/mol.
As for CATGTCACGTGGGCTT, the “relative binding free energy” value was -0.08 kcal/mol.
Take ATTGTCACGTGAGGCT: the “relative binding free energy” value amounted to 0.22 kcal/mol.
As to AGTGTCACGTGGGCGA, the “relative binding free energy” value is -0.03 kcal/mol.
For TTTAGCACGTGCAGTG, the “relative binding free energy” value was -0.17 kcal/mol.
Regarding TTAGGCACGTGAAGGC, the “relative binding free energy” value stood at 0.19 kcal/mol.
Under CTGTGCACGTGGGTTT stands -0.13 kcal/mol.
Under TAGGGCACGTGGGTGG stands -0.2 kcal/mol; under GTAGACACGTGAGGTG, 0.32 kcal/mol.
Regarding GTGATCACGTGTGTTA, the “relative binding free energy” value came out at 0 kcal/mol.
With GGTGTCACGTGAGTAT, the “relative binding free energy” value came to 0.39 kcal/mol.
Next, AGAGTCACGTGAGGTC: 0.37 kcal/mol.
Next, GGTGGCACGTGAACGG: 0.04 kcal/mol; TAATTCACGTGTTGAG: 0.27 kcal/mol.
With GAGTTCACGTGTTGGT, the “relative binding free energy” value is 0.46 kcal/mol.
Turning to GCGTTCACGTGGTAGT, the “relative binding free energy” value came out at 0.24 kcal/mol.
As to TGGTTCACGTGTTTAA, the “relative binding free energy” value was 0.25 kcal/mol.
Under GCTCTCACGTGTGGGG stands 0.18 kcal/mol.
As to GACGACACGTGAGGAG, the “relative binding free energy” value was determined as 0.56 kcal/mol.
With TGTTACACGTGGTCTT, the “relative binding free energy” value turned out to be 0.15 kcal/mol.
As to GTGGGCACGTGTTACG, the “relative binding free energy” value was -0.03 kcal/mol.
Consider TTCATCACGTGTGGGG, for which the “relative binding free energy” value was determined as 0.3 kcal/mol.
Next, GTTGGCACGTGTGAGG: -0.02 kcal/mol; TAAATCACGTGTGTAT: 0.33 kcal/mol; TTATACACGTGCTGGT: -0.06 kcal/mol.
In the case of GGCGGCACGTGGCTGG, the “relative binding free energy” value was -0.08 kcal/mol.
As for GAAATCACGTGACGGG, the “relative binding free energy” value turned out to be 0.51 kcal/mol.
As for ATGTCCACGTGGTGTG, the “relative binding free energy” value is -0.05 kcal/mol.
Next, AATTGCACGTGAGCGT: -0.05 kcal/mol; CTGAGCACGTGGTCTG: -0.09 kcal/mol.
In the case of AACTTCACGTGGTGTG, the “relative binding free energy” value was found to be 0.06 kcal/mol.
For the sequence CTAGGCACGTGGGTAC, the “relative binding free energy” value was -0.18 kcal/mol.
On to ATCAACACGTGTAGGT, for which the “relative binding free energy” value worked out at 0.13 kcal/mol.
For GGTTTCACGTGACGTA, the “relative binding free energy” value was determined as 0.37 kcal/mol.
Next, GAAGGCACGTGTAATG: 0 kcal/mol; TGTTCCACGTGAATGT: 0.32 kcal/mol.
On to GGAATCACGTGTATGT, for which the “relative binding free energy” value is 0.18 kcal/mol.
Under AAGTACACGTGAAGTG stands 0.28 kcal/mol; under AGGGCCACGTGAGATT, 0.24 kcal/mol; under GTTGTCACGTGATGAG, 0.16 kcal/mol.
Take ATTGCCACGTGTTTGA: the “relative binding free energy” value was -0.14 kcal/mol.
Turning to TAAGTCACGTGGGAGT, the “relative binding free energy” value was -0.01 kcal/mol.
As to TAGCTCACGTGGTGGG, the “relative binding free energy” value came to 0.06 kcal/mol.
Next, GATGTCACGTGTAGAA: 0.24 kcal/mol; TAGCTCACGTGGGTAA: 0.15 kcal/mol.
Under GTAGTCACGTGTTTGC stands 0.24 kcal/mol.
In the case of ATGTACACGTGTGAAG, the “relative binding free energy” value worked out at 0.08 kcal/mol.
Next, TTTTGCACGTGTTATA: 0 kcal/mol; TTAAGCACGTGTGTGC: -0.03 kcal/mol.
Next, CTTTTCACGTGCTTTG: 0.26 kcal/mol; ATTATCACGTGTGTAC: 0.16 kcal/mol.
